# Test results reported in PubChem BioAssay AID624296 (National Center for Advancing Translational Sciences (NCATS), 2012).
# In all, about 350,000 compounds went through this assay and about 9,900 (2.8%) were called active. Inconclusive means that the source gave no clear call. Such entries were picked first, then a sample of the others. Calls follow the shape of the dose curve; as a rule, active = well fitted activation curve with a large enough effect; inconclusive = small, poorly fitted or top-dose-only effect; inactive = no such curve, though single readings can be large or run the other way. No potency is given beside an inconclusive call; the fits are too rough.
# Assay: A quantitative high throughput screen for small molecules that induce DNA re-replication in MCF 10a normal breast cells. Also: nearly all actives have a fitted effect of over 50% in size. As to activity, positive = re-replication: % of control where 0% means no effect.
# Conditions: MCF 10A DNA re-replication, Hoechst nuclear intensity, 48 h; activity, positive = re-replication: at 46.1 µM (top of the series)
# Potency is read from the fitted curve at half-maximal effect; tags tell the direction and shape of the fitted curve.
SMILES,Potency,"activity, positive = re-replication"
COc1ccc(OC/C(O)=C(\C#N)c2nc3ccccc3[nH]2)cc1,"inconclusive [activator, single point]",
Cc1ccc(S(=O)(=O)NCCCNC(=O)OCc2ccccc2)cc1,,inactive: -1.1%
CCOc1ccc(N(C(C)C(=O)Nc2ccc(OC)cc2)S(C)(=O)=O)cc1 (stereo not given),"inconclusive [activator, single point]",
CC1C/C(=C/c2ccccn2)C(=O)/C(=C/c2ccccn2)C1 (stereo not given),active: 2.31 µM,
O=C(O)C1C(C(=O)Nc2ccc(Cl)cc2)C2C=CC1C21CC1 (stereo not given),"inconclusive [activator, single point]",
COc1ccc(NC(=S)N/C(=N/S(=O)(=O)c2ccc(C)cc2)c2ccccc2)cc1,,inactive: -20.5%
Cc1cc(N2CCN(c3ccccc3)CC2)nc(-n2nc(C)cc2C)n1,"inconclusive [activator, partial curve, poor fit]",
Cc1ccc(CCC(=O)Nc2ccc(Br)cc2)o1,"inconclusive [activator, single point]",
O=C(CN1C(=O)NC2(CCCCC2)C1=O)Nc1cccc(S(=O)(=O)N2CCCC2)c1,"inconclusive [activator, single point]",
CC(C)(C)OC(=O)N1CCC(C(=O)Nc2ccc(C(=O)NCc3ccccc3)cc2)CC1,"inconclusive [activator, single point]",
COc1ccc(/C=C2\COc3ccccc3C2=O)cc1OC,"inconclusive [activator, single point]",
COC(=O)\C(C(C)=O)=C(/C=C/C=C/N(C)C)N(C)C,"inconclusive [activator, single point]",
c1ccc2c(c1)[nH]c1c(N3CCOCC3)ncnc12,,inactive: 0.408%
CC(=O)Nc1ccc(C=CC=Cc2cccc([N+](=O)[O-])c2)cc1,"inconclusive [activator, single point]",
O=C(Nc1ccc(Cl)cc1)C1C2CCC3C(CCC21)C3(Cl)Cl (stereo not given),"inconclusive [activator, single point]",
NC(=Nc1nc(-c2ccccn2)cc2ccccc12)c1ccccn1,"inconclusive [activator, partial curve]",
Cc1ncoc1C(=O)Nc1nccs1,,inactive: 4.2%
N#CSCC(=O)c1cccc2ccccc12,active: 18.4 µM,
CCc1nnc(NC(=O)c2ccc(S(=O)(=O)N3CCCc4ccccc43)cc2)o1,active: 9.2 µM,
CCOC(=O)N1CCN(CC(=O)Nc2sccc2C#N)CC1,,inactive: 4.06%
O=S(=O)(c1ccc(Cl)cc1)n1ccc(-c2cccc(OCc3c(F)cccc3Cl)c2)n1,,inactive: 22.8%
CNC(=O)C1=C(C)NC(=S)NC1c1cccs1 (stereo not given),,inactive: -13.8%
Cc1ccc(SCC(=O)Nc2ccc(S(=O)(=O)Nc3nccs3)cc2)cc1,"inconclusive [activator, single point]",

SMILES,Potency,"activity, positive = re-replication"
CCc1c(C)sc(NC(=O)c2cc(C(C)C)on2)c1C#N,"inconclusive [activator, single point]",
COc1cc2c(c(OC)c1OC)-c1c(cc3c(c1O)OCO3)C[C@@H](C)[C@@H](C)C2,"inconclusive [activator, single point]",
COc1cc(OC)cc(C(=O)NCC(=O)N2CC=C(c3ccccc3)CC2)c1,"inconclusive [activator, single point]",
Cc1c(CCOC(=O)c2ccc(N3CCOCC3)c([N+](=O)[O-])c2)sc[n+]1CC#N,active: 16.4 µM,
Cc1ncc([N+](=O)[O-])n1CC(=O)N/N=C/c1ccc(F)cc1,"inconclusive [activator, single point]",
CCCN(CCC)C(=O)CSc1nc2c(sc(=S)n2-c2ccc(OCC)cc2)c(=O)[nH]1,"inconclusive [activator, partial curve, poor fit]",
COc1cccc(-c2n[nH]c(=S)n2Cc2ccco2)c1,"inconclusive [activator, single point]",
CC(C)C[C@H](NC(=O)C1CC(=O)N(c2ccc(F)cc2)C1)C(=O)N1CCCCC1 (stereo not given in full),,inactive: 4.43%
Cc1cc(OCc2cc(C(=O)N(C)CC3CCOCC3)no2)cc(C)c1Cl,"inconclusive [activator, single point]",
CCOC(=O)N/N=C\c1ccccc1OC/C=C/c1ccccc1,"inconclusive [activator, partial curve, poor fit]",
C=CC(C)(C)O[C@@H]1O[C@H](CO)[C@@H](O)[C@H](O)[C@H]1O,"inconclusive [activator, single point]",
CC(=O)NC(CC(=O)Nc1ccc(S(=O)(=O)NC2=NCCCCC2)cc1)c1ccccc1 (stereo not given),,inactive: 0.243%
CC(=O)C[C@@H](O)CC(=O)[C@@H]1OC(=O)[C@@H](C)C/C=C\Cc2ccccc21,,inactive: -3.7%
Cc1cc(NC(=O)CSc2c3c(nc4ccccc24)CCC3)no1,"inconclusive [activator, single point]",
C=C(C)C1CC=C(C)/C(=N\NC(=S)Nc2ccc(C)cc2)C1 (stereo not given),"inconclusive [activator, partial curve]",
CN(Cc1ccccc1N1CCCC1)C(=O)c1cc2cc(Cl)ccc2o1,active: 14.6 µM,
COc1ccc(C2=NNC(=O)CC2)cc1,,inactive: -0.56%
CCO[C@H]1OC(C(=O)Nc2ccccc2)=C[C@@H](C)[C@@H]1CCCO,"inconclusive [activator, single point]",
CC(C)(C)c1cc(C(=O)N/N=C/c2ccc([N+](=O)[O-])s2)n[nH]1,"inconclusive [activator, single point]",
COc1ccc(C=CC(=O)c2cc(O)ccc2O)cc1,"inconclusive [activator, single point]",
COc1ccccc1NC(=O)c1cc2c(CO)cnc(C)c2oc1=Nc1cccc(C(N)=O)c1,"inconclusive [activator, single point]",
CCCC(=O)Nc1ccc(NC(=O)c2cc3ccccc3o2)c(OC)c1,"inconclusive [activator, partial curve]",
